Data taken from the supplement of paper PMC4996465.

How the values were obtained:
[1] = system: Nalm-6; assay: log AC50 of viability decrease (48 h) (log10 M); higher = less potent
Description: (§1)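 Eleven-dose screen of the NCATS MIPE 3 library on cells without co-treatment; CellTiter-Glo after 48 h. AC50 from the curve fit; only inhibitory curves of the better fit classes are listed.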

[2] = system: KB3-1; assay: as above
Description: as §1

[3] = system: Nalm-6; assay: viability (% of DMSO control); higher = more viable cells
Description: (§2)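 Eleven-dose screen of the NCATS MIPE 3 library on cells without co-treatment; CellTiter-Glo after 48 h, as % of DMSO wells.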

[4] = system: KB3-1; assay: as above
Description: as §2

Which results are given for c1ccc2c(-c3cnn4cc(-c5ccc(N6CCNCC6)cc5)cnc34)ccnc2c1?
log AC50 of viability decrease ([1]; run: 1): -5.18; log AC50 of viability decrease ([1]; run: 2): -4.83; log AC50 of viability decrease [2]: -4.73; viability ([3]; run: 1, 0.00078 µM): 109%; viability ([3]; run: 1, 0.00234 µM): 109%; viability ([3]; run: 1, 0.00702 µM): 117%; viability ([3]; run: 1, 0.0211 µM): 117%; viability ([3]; run: 1, 0.0632 µM): 111%; viability ([3]; run: 1, 0.19 µM): 106%; viability ([3]; run: 1, 0.569 µM): 105%; viability ([3]; run: 1, 1.71 µM): 92.4%; viability ([3]; run: 1, 5.12 µM): 74.9%; viability ([3]; run: 1, 15.4 µM): 2.25%; viability ([3]; run: 1, 46.1 µM): 0.35%; viability ([3]; run: 2, 0.00078 µM): 104%; viability ([3]; run: 2, 0.00234 µM): 105%; viability ([3]; run: 2, 0.00702 µM): 104%; viability ([3]; run: 2, 0.0211 µM): 109%; viability ([3]; run: 2, 0.0632 µM): 105%; viability ([3]; run: 2, 0.19 µM): 99.4%; viability ([3]; run: 2, 0.569 µM): 97.1%; viability ([3]; run: 2, 1.71 µM): 87.7%; viability ([3]; run: 2, 5.12 µM): 84.9%; viability ([3]; run: 2, 15.4 µM): 41.4%; viability ([3]; run: 2, 46.1 µM): 1.01%; viability ([4]; 0.00078 µM): 105%; viability ([4]; 0.00234 µM): 104%; viability ([4]; 0.00702 µM): 102%; viability ([4]; 0.0211 µM): 105%; viability ([4]; 0.0632 µM): 103%; viability ([4]; 0.19 µM): 102%; viability ([4]; 0.569 µM): 99.5%; viability ([4]; 1.71 µM): 95.2%; viability ([4]; 5.12 µM): 85.3%; viability ([4]; 15.4 µM): 65.9%; viability ([4]; 46.1 µM): 0.333%

Which “log AC50 of viability decrease” value ([1]; run: 1) does the source give for Sc1ncnc2[nH]cnc12 [6-mercaptopurine] here?
The value was -6.42.

What about the “log AC50 of viability decrease” value ([1]; run: 2) of the same compound?
The value was -6.22.

And the “log AC50 of viability decrease” value [2]?
The value was -6.22.

What about the viability ([3]; run: 1, 0.00156 µM) of the same compound?
The viability was 119%.

What about the viability ([3]; run: 1, 0.00468 µM) of the same compound?
The viability was 125%.

And the viability ([3]; run: 1, 0.014 µM)?
Its viability is 117%.

What about the viability ([3]; run: 1, 0.0421 µM) of the same compound?
Its viability is 110%.

What about the viability ([3]; run: 1, 0.126 µM) of the same compound?
The viability was 107%.

What about the viability ([3]; run: 1, 0.379 µM) of the same compound?
The viability was 71.5%.

And the viability ([3]; run: 1, 1.14 µM)?
The viability was 23.2%.

What about the viability ([3]; run: 1, 3.41 µM) of the same compound?
The viability was 21.9%.

What about the viability ([3]; run: 1, 10.2 µM) of the same compound?
The viability was 20.2%.

And the viability ([3]; run: 1, 30.7 µM)?
Its viability is 18.5%.

And the viability ([3]; run: 1, 92.2 µM)?
Its viability is 10.7%.

And the viability ([3]; run: 2, 0.00156 µM)?
The viability was 109%.

And the viability ([3]; run: 2, 0.00468 µM)?
Its viability is 106%.

And the viability ([3]; run: 2, 0.014 µM)?
The viability was 102%.

And the viability ([3]; run: 2, 0.0421 µM)?
The viability was 108%.

And the viability ([3]; run: 2, 0.126 µM)?
The viability was 95.6%.

What about the viability ([3]; run: 2, 0.379 µM) of the same compound?
The viability was 86.4%.

And the viability ([3]; run: 2, 1.14 µM)?
The viability was 40.3%.

What about the viability ([3]; run: 2, 3.41 µM) of the same compound?
The viability was 30.5%.

What about the viability ([3]; run: 2, 10.2 µM) of the same compound?
Its viability is 26.7%.

What about the viability ([3]; run: 2, 30.7 µM) of the same compound?
The viability was 26.7%.

And the viability ([3]; run: 2, 92.2 µM)?
Its viability is 19.6%.

What about the viability ([4]; 0.00156 µM) of the same compound?
The viability was 108%.

And the viability ([4]; 0.00468 µM)?
The viability was 113%.

And the viability ([4]; 0.014 µM)?
The viability was 99.9%.

What about the viability ([4]; 0.0421 µM) of the same compound?
Its viability is 104%.

And the viability ([4]; 0.126 µM)?
The viability was 106%.

And the viability ([4]; 0.379 µM)?
The viability was 85.4%.

What about the viability ([4]; 1.14 µM) of the same compound?
Its viability is 40.5%.

And the viability ([4]; 3.41 µM)?
Its viability is 30.3%.

What about the viability ([4]; 10.2 µM) of the same compound?
The viability was 28.5%.

What about the viability ([4]; 30.7 µM) of the same compound?
Its viability is 30.1%.

And the viability ([4]; 92.2 µM)?
Its viability is 27%.

Viability of KB3-1 and Nalm-6 cells after 48 h of drug alone (CellTiter-Glo), 11 doses over about 4.5 log units. % of DMSO wells, lower = more cell loss; AC50 from the fitted curve, lower = more potent. No active / inactive call. Nalm-6 was screened in two runs. AC50 is listed only for well-fitted inhibitory curves. KB3-1 is a HeLa-derived carcinoma line, Nalm-6 a B-cell precursor leukaemia line.
